The results in this text go back to article PMC12136788.

To fix the notation:
T1: UNK ZnF1-3 (human, UniProt Q9C0B0 31-174)
T1 sequence: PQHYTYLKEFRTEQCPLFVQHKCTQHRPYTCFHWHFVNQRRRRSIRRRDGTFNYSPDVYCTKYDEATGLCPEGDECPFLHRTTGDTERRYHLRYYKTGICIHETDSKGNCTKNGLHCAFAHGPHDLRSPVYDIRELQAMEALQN

B1: chr4:41607924:41607925:+_ENSG00000064042_ENST00000508501|hu_hu|motif|central (ssRNA)
RNA: GGGAGUUCUACAGUCCGACGAUCCGUUCCGCUGUAGGAUGUGCAGCUGUUUGCUGCUUUUCCCAGCCAGUAAAUGGUAACGGAUACAUUUUUCAGCUUCCUACUAUAAUCAAGGCUCUUGACUGUUACUCUGUUGGAUGUAUCCAACAGAGGAUUGAGCAUCA
B2: chr2:104521139:104521140:-_ENSMUSG00000027175_ENSMUST00000111118|mus_mus|FALSE|FALSE (ssRNA)
RNA: GGGAGUUCUACAGUCCGACGAUCGAUGCGGGAGAUCAACCCCGGGGCCUCGUGCAGGCUAGGCGAUCACUGGCCACUGUACUACAUACAAGUUGACAAAACAAGCUUUUAAAAAUCAAGUUCUAUCCAUUGGGUAUGGUGGCACAACAGAGGAUUGAGCAUCA
B3: chr7:107875085:107875086:-_ENSG00000091129_ENST00000351718|hu_mus|FALSE|FALSE (ssRNA)
RNA: GGGAGUUCUACAGUCCGACGAUCUGGGGGAGGUUUCCCUUUGGCCUCACACUGGAUUACAAUAUUCUCCCGAGGGUCAAUGAUGUAGUCUUUUGGUGACUGUUGAGUGAUGGUUGGAGGUUGUACCAGAUCGAGAGGAACAUCCAACAGAGGAUUGAGCAUCA
B4: 81600016_81601175_2457_CDS_ENSG00000153956_ENST00000356860|human|control|control (ssRNA)
RNA: GGGAGUUCUACAGUCCGACGAUCACCAUCAGUCACAACAAAUCGUGCUUUCACUCCCUUGAUAUUUUUCUGCUUACUCCAGUAAUUUUGGACAAGUUCAUUUGUAAAGCCUGCAUCAAGCAAGACUCUAUUAAUCAAAUCCGCCAACAGAGGAUUGAGCAUCA
B5: chr16:69481128:69481129:+_ENSG00000103018_ENST00000515314|hu_mus|FALSE|FALSE (ssRNA)
RNA: GGGAGUUCUACAGUCCGACGAUCACUCGGAUGGACAUCUCCAAUGUAGUACUGCUUUAGCAUCUCCCUGGCAUCAGGGGAGUGGCCGACAUCUUCAAAGCUUUCAGUUGCAUCAGCACCCGCUUGUUCCAGCAGAACCUCUUCCAACAGAGGAUUGAGCAUCA
B6: chr4:45007048:45007049:-_ENSMUSG00000049657_ENSMUST00000055028|mus_mus|FALSE|FALSE (ssRNA)
RNA: GGGAGUUCUACAGUCCGACGAUCGCUCUGACUUGCACUGAAAUUACUCCCCCUGCUCUUGUUGAGAAAAUUGGAAAUACUAAAAGAGGUCUUAUGUUCUAGAUUAUUCGUGACUUCCAAGAUGUGGAUGUCCCCGACCCUGUCCAACAGAGGAUUGAGCAUCA
B7: chr11:134117569:134117570:+_ENSG00000151502_ENST00000281187|hu_mus|FALSE|FALSE (ssRNA)
RNA: GGGAGUUCUACAGUCCGACGAUCAGAAACAUGUAAACACUGCAGCUUCUUAAUUACAAGUUGCACUGCUUGGUUUAGUACCUAUGCACUCCAGGUUUGGGAACCUUAAAGGAUGGGGAUGGGAACCUUCCCAUACUUUCACAGCAACAGAGGAUUGAGCAUCA
B8: 94768049_94770785_385_CDS_ENSG00000164953_ENST00000453321|human|control|control (ssRNA)
RNA: GGGAGUUCUACAGUCCGACGAUCACAGUGACAUUUUCCUUCGGCAGUUAAGUCACUAGGGCAAGAAAUGCAGUUCCAGCCAUCUUCUGUAACACCUUUCAUGUUUUCUGGGCACUUUUUACAAAUAAUAGCAGGUCCUCCAUUCAACAGAGGAUUGAGCAUCA
B9: chr13:103288631:103288632:+_ENSG00000134900_ENST00000376065|hu_hu|motif|central (ssRNA)
RNA: GGGAGUUCUACAGUCCGACGAUCCUGAACAGGAUCUCGGAGGUAGAUGCCACGGUUAUUUCCAACAGUAACAGUAAAACCGGAUUUAUUAGCAAAUGAUGUAUUCUGAACGAGGUAGUCAUAGGCUUUAUCAACCUGAAUAAUCAACAGAGGAUUGAGCAUCA
B10: chr8:79514811:79514812:+_ENSG00000171033_ENST00000352966|hu_hu|motif|central (ssRNA)
RNA: GGGAGUUCUACAGUCCGACGAUCCACCAAACAGACUGAAUUCAGGUGAUAUUCACAUUAAUGGAUAUUUUCAAAUGUCUCGGUAAUAAAGCAAUGGAGUCUUGAUGAAUCUGUUAGACUUAAUCAACUCAUCAACAUACAAUGCAACAGAGGAUUGAGCAUCA
B11: chr2:156005782:156005783:-_ENSMUSG00000027620_ENSMUST00000109587|mus_mus|FALSE|FALSE (ssRNA)
RNA: GGGAGUUCUACAGUCCGACGAUCGCGGUACCGCCCAACCCGAAUAUCGGGCCCCGAGGGCGUCUAGGCCCAAGCGAAUCUAAAAGAAACAAUGGGAUUAAAGGAGCCCGCGACGGAGAGCAGGGCAGCGGCUUCGGCAGCUCACAACAGAGGAUUGAGCAUCA
B12: chrX:71549400:71549401:+_ENSMUSG00000019087_ENSMUST00000019231|mus_hu|mus_mus_mus_hu_False|8_38 (ssRNA)
RNA: GGGAGUUCUACAGUCCGACGAUCGCAGUAGGAAGAGGGAAGCUCUUCAGUCCAGUGCGCUGCAGGGUGGGAAAGCAACAACACGGACACCGUCCCACCUCAAUUCCCCCCACUGGCACAGGGUCACAUCUGGGUCAUCAAAGACAACAGAGGAUUGAGCAUCA
B13: 105948264_105948384_109_5pUTR_ENSG00000149313_ENST00000278618|human|control|control (ssRNA)
RNA: GGGAGUUCUACAGUCCGACGAUCGUGGCCCCACCCCCUUCUUCCCGGCGUCCGUGCGCAGGGGACGGGCCGUCGCUACGCAGACUGGCCCACCGACAGCCCUCCCAGCCCGCCCCCGACUCAGCCACCUCCUCUCGGAGAAAGCAACAGAGGAUUGAGCAUCA
B14: chr1:52977185:52977186:+_ENSMUSG00000041426_ENSMUST00000044478|mus_mus|motif|central (ssRNA)
RNA: GGGAGUUCUACAGUCCGACGAUCUUUGCUCCAAAAUAAACUUUAGAAUUUCAAAUCACUGCUUCCCAGAGAUUUAAAGUAACGGUUCAAGUCUUCAUCCGUAACAUCUUUUAGAUUGGCUGGUUUCCAUUUUGGAGUCUGGUCCAACAGAGGAUUGAGCAUCA

Some of the results follow.

In this test the target is T1, UNK ZnF1-3. In words: nsRBNS (natural sequence RNA bind-n-seq); RBNS binding buffer (assumed for nsRBNS): 25 mM Tris pH 7.5, 150 mM KCl, 3 mM MgCl2, 0.01% Triton X-100, 500 ug/ml BSA, 20 U/ml SUPERase-In, 4 C; UNK is unkempt and MSI1 is Musashi-1; names of the RNAs are library labels; protein concentration not given here; high values mean tight binding.
B1: the binding signal came out at 0.427 enrichment R.
Turning to B2, the binding signal came to 0.809 enrichment R.
Under B3 stands 0.805 enrichment R.
Under B4 stands 1.17 enrichment R; under B5, 1.23 enrichment R.
To B6 belongs 1 enrichment R; to B7, 0.679 enrichment R.
With B8, the binding signal was found to be 0.868 enrichment R.
To B9 belongs 1.23 enrichment R.
To B10 belongs 0.891 enrichment R; to B11, 1.07 enrichment R; to B12, 1.27 enrichment R.
Under B13 stands 1.15 enrichment R.
In the case of B14, the binding signal is 0.948 enrichment R.
